# Experimental data reported in PubChem BioAssay AID1240 (Sanford-Burnham Center for Chemical Genomics, 2008).
# Screen size: about 50,000 compounds; about 800 (1.6%) showed an effect of 50% or more. Some of the results follow.
# Molecular target: Bcl-2-like protein 10 (Homo sapiens) (UniProt Q9HD36)
# Assay: TR3 peptide-Bcl-B binding displacers, biochemical primary FP assay, phenotype converters (AID 1240);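 further: 0% = Bcl-B with tracer peptide and DMSO and 100% = tracer peptide lacking Bcl-B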
# Conditions: GST-Bcl-B / FITC-TR3 peptide fluorescence polarization; stronger effect = higher value; compound at 3.75 mg/L
# Sequence of UniProt Q9HD36 (Q9HD36 whole entry, looked up): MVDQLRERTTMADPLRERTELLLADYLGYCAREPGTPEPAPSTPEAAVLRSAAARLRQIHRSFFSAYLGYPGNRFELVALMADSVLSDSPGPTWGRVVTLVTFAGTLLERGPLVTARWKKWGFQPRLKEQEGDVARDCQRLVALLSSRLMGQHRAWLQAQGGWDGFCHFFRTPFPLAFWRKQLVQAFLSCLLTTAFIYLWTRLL
row,Structure (SMILES),displacement [%]
1,O=C(Nc1ccc(Cl)cc1)Nc1nnc(-c2cccs2)s1,9.6
2,CC1(C)CC(=O)C(C(C2=C(O)CC(C)(C)CC2=O)c2cccc(OCc3ccccc3)c2)C(=O)C1 (stereo not drawn),-1.7
3,CCOC(=O)C1=C(c2ccccc2)OC(N)=C(C#N)C1c1cccc(OC)c1 (stereo not drawn),2.2
4,CC(=O)Oc1ccc(/C=C2\SC(=S)NC2=O)cc1,23.9
5,O=C(c1ccc([N+](=O)[O-])cc1)N1CCN(Cc2ccccc2Br)CC1,-12.7
6,O=c1[nH][nH]c(=O)c2cc(N3CCCC3)ccc12,4.4
7,Cc1ccc(-c2ccc(OC(=O)COc3ccccc3Cl)cc2)cc1,21
8,COc1ccc(C2=NN(C(C)=O)C(c3ccc(OC)cc3)C2)cc1 (stereo not drawn),3.2
9,O=C(c1ccccc1F)N1CCN(C2CCN(Cc3ccccc3)CC2)CC1,3.4
10,Cc1ccccc1Nc1ccc([N+](=O)[O-])c2nonc12,7.6
11,CCN(CC)c1ccc(C2NC(=O)NC(C)=C2C(=O)OCCC#N)cc1 (stereo not drawn),3.3
12,Cc1ccc2c(c1)NC(c1ccc(Cl)cc1Cl)C1=C(CC(C)(C)CC1=O)N2 (stereo not drawn),13.5
13,CCOc1cc(/C=C2/SC(=S)NC2=O)cc(Cl)c1OCc1ccc(Cl)cc1Cl,-5.3
14,CCOc1ccc(NC(=O)c2c(NC(=O)CCC(=O)O)sc3c2CCCC3)cc1,-6.7
15,COC(=O)C1=C(C)N(C)C(C)=C(C(=O)OC)C1c1cc(Br)ccc1OC,-4.1
16,Cc1ccc(Cl)cc1N(Cc1ccc(C(=O)N2CCCC2)cc1)S(=O)(=O)c1ccccc1,3.2
17,C=C(C)CSc1nnc2n(Cc3ccccc3)c(=O)c3c4c(sc3n12)CCC4,0.7
18,COc1ccc2c(c1)NC(C)(C)c1sn(-c3ccccc3)c(=S)c1-2,1.5
19,Cc1cc(C)n(C(=O)COc2cccc3ccccc23)n1,19.1
20,O=S(=O)(c1cccc2cccnc12)N1CCCc2ccccc21,-5.3
21,COc1ccc(NC(=O)C2C(C=C(Cl)Cl)C2(C)C)cc1 (stereo not drawn),7.5
22,Cc1cc(C)nc(SCC(=O)n2c3ccccc3c3ccccc32)n1,-13.4

row,Structure (SMILES),displacement [%]
1,CC(=O)Nc1cc(-c2ccccc2)nn1Cc1ccccc1,-3
2,CCOc1ccccc1NC(=O)C(=O)NCc1cccnc1,7.3
3,CC(C)Oc1ccc(C(Cc2nc3ccccc3[nH]2)c2nc3ccccc3[nH]2)cc1 (stereo not drawn),-11.6
4,COc1ccc(-c2cn3cccc(C)c3n2)cc1Br,6.9
5,Cc1ccc(N(CC(=O)NCc2cccnc2)S(C)(=O)=O)cc1,12.1
6,COc1cc(C=C2C(=O)N(C)C(=O)N(C)C2=O)cc(Cl)c1OCCOc1ccccc1,13.5
7,Cc1cccc(NC(=O)C2C3C=CC(C4CC34)C2C(=O)O)c1C (stereo not drawn),0.9
8,O=C1S/C(=C/c2ccc(O)c([N+](=O)[O-])c2)C(=O)N1c1ccccc1,8
9,COC(=O)c1cc(NC(=O)Cc2ccccc2[N+](=O)[O-])cc(C(=O)OC)c1,-8
10,O=[N+]([O-])c1ccc(C2Oc3ccccc3C3CC(c4ccccc4)=NN32)s1 (stereo not drawn),-14
11,COC(=O)C1=CNC=C(C(=O)OC)C1c1ccc(OC)c(OC)c1OC,2.4
12,CC(Oc1ccccc1)C(=O)Nc1ccncc1 (stereo not drawn),-0.6
13,COc1ccc(C(=O)NNC(=O)c2ccc(C)cc2)c(OC)c1,-8.4
14,Cc1cccc(NC(=O)CC2Nc3ccccc3NC2=O)c1 (stereo not drawn),-0.6
15,COc1ccccc1NC(=S)NC(NC(=O)c1cc(OC)c(OC)c(OC)c1)C(Cl)(Cl)Cl (stereo not drawn),10.2
16,CC(=O)N1c2ccc(C)cc2C(Nc2ccc(C)cc2)CC1C (stereo not drawn),0.2
17,Cc1ccccc1N(CC(=O)Nc1ccc(Cl)c(Cl)c1)S(C)(=O)=O,-4.9
18,O=C(N/N=C/c1ccco1)c1cc(=O)[nH]c2ccccc12,-2.7
19,COc1ccc(/C=C2\SC(=S)N(NC(=O)c3ccccc3)C2=O)cc1OC,5.7
20,CC(C)C1=CC(=NS(=O)(=O)c2ccc(Cl)cc2)C=C(C(C)C)C1=O,1.6
21,COc1ccc(C2CC(C(F)(F)F)n3nc(C(=O)N4CCSCC4)cc3N2)cc1 (stereo not drawn),5.5
22,O=C(c1ccc(-c2ccccc2)cc1)N1CCN(Cc2ccc(Cl)cc2)CC1,21.2

row,Structure (SMILES),displacement [%]
1,S=C(c1ccc(OCc2ccccc2)cc1)N1CCN(c2cccc(Cl)c2)CC1,14
2,Cc1nc(C)c(/C(O)=C/c2nc3ccc([N+](=O)[O-])cc3oc2=O)s1,-12
3,O=C1C(=O)N(c2ncc(S(=O)(=O)c3ccc([N+](=O)[O-])cc3)s2)C(c2ccc(F)cc2)/C1=C(\O)c1ccc(Cl)cc1 (stereo not drawn),18.3
4,Clc1ccc2nc(N/N=C/c3ccc4c(c3)OCO4)nc(-c3ccccc3)c2c1,83.7
5,CC(=O)Cc1cc(O)c2ccccc2c1OC(=O)c1ccc(C)cc1,2.3
6,O=C(Nc1ccc(Cl)cn1)c1cc(F)c(F)cc1Cl,-2.7
7,CCOC(=O)c1c(C)oc2cc(Br)c(OCC)cc12,10.3
8,CC(=O)N(C1=C(N2CCCCC2)C(=O)c2ccccc2C1=O)c1ccc(Br)cc1,2.8
9,Cc1ccc(/C(O)=C2\C(=O)C(=O)N(CCCC(=O)O)C2/C=C/c2ccccc2)cc1 (stereo not drawn),9.5
10,Cc1cc(-n2ccc(=O)[nH]c2=O)nc(-c2ccccc2)n1,-19.4
11,CC(=O)/C(C)=C(\NC(=O)c1ccccc1)c1ccccc1,0.1
12,O=C(NCCc1ccc(F)cc1)C(=O)Nc1ccc(Cl)cc1,1.6
13,O=C(NNC(=O)c1ccco1)c1ccco1,-10.1
14,COC(=O)c1c(C)oc2cc3c(C(=O)OC)c(C)oc3cc12,8.5
15,CCOc1ccccc1C(=O)Nc1cccc(C(C)=O)c1,21.9
16,CN1C(=O)/C(=C\c2ccccc2OCc2cccc3ccccc23)SC1=S,1.7
17,COc1ccc(CNC(=O)Cc2ccc(Br)cc2)cc1,0
18,O=[N+]([O-])c1cccc(-c2nc(-c3ccc(Cl)cc3)no2)c1,12.7
19,CC(Nc1n[nH]c(=O)[nH]c1=O)C(=O)N/N=C/c1ccccc1Cl (stereo not drawn),-4.2
20,O=[N+]([O-])c1ccc2nc(SCc3nc4ccccc4[nH]3)sc2c1,3.8
21,O=C1N/C(=N\N=C\c2ccco2)SC1Cc1cc(Cl)ccc1Cl (stereo not drawn),-0.4
22,CC(=O)c1ccc(NC(=O)c2cc3ccccc3o2)cc1,4.7

row,Structure (SMILES),displacement [%]
1,O=C(CSc1nc2ccccc2o1)OCC(=O)c1ccc(Cl)cc1,-0.4
2,CCOC(=O)C1NN=C(C(=O)c2ccccc2)C1c1ccccc1 (stereo not drawn),3.7
3,Cc1cc(C)c(NC(=O)C2CCCN2CCCO)c(C)c1 (stereo not drawn),-10.7
4,O=C(Cc1ccccc1)NC(c1ccco1)c1c(O)ccc2ccccc12 (stereo not drawn),14.3
5,NNc1ccc(/C=C/c2ccc(NN)cc2S(=O)(=O)O)c(S(=O)(=O)O)c1,3.6
6,CC(C)c1ccc(/C=N/NC(=O)c2cc(-c3ccc(Cl)cc3)n[nH]2)cc1,-12.7
7,COc1ccc(C(=O)O/N=C(\N)c2ccccc2)cc1,-9.3
8,CCOC(=O)COc1ccc(/C=C2\SC(=Nc3cccc(Cl)c3C)NC2=O)cc1OCC,-17.5
9,CCOC(=O)C1=C(C)N(c2ccc(OCC)cc2)C(=O)C1,3.9
10,Cc1ccc(-c2nc3sc4c(c3c(=O)o2)CCCCC4)cc1,41.1
11,O=C1NC(=S)N(c2ccccc2)C(=O)/C1=C/c1cc(Br)c(O)c(Br)c1,-4.6
12,O=C(CCN1C(=O)/C(=C\c2cccs2)SC1=S)Nc1cc(Cl)ccc1O,42.1
13,Cc1ccc2c(Cl)c(C(=O)NCc3ccccn3)sc2c1,-12.1
14,O=C(Nc1ccccc1C(=O)O)c1cccc(S(=O)(=O)NC2CCCCC2)c1,-12.6
15,CC(C)OC(=O)COc1ccc2c3c(c(=O)oc2c1)CCC3,0.6
16,Cc1cc(C)cc(NC(=O)C2C3C=CC(O3)C2C(=O)O)c1 (stereo not drawn),11.6
17,O=c1[nH]c(=O)n(Cc2ccccc2)c(O)c1/C=C1\C=CC=N1,48.7
18,CCN(CC)c1ccc(/C=N/NC(=O)c2cc(Br)ccc2O)c(O)c1,-6.4
19,COc1nnc(-c2ccc(C)cc2)c2ccccc12,-9.7
20,COc1ccc(OCC(=O)NCCSCc2ccc(Cl)cc2)cc1,0.8
21,CCOc1cc(C(=O)NCc2ccncc2)cc(OCC)c1OCC,-2.1
22,CCOC(=O)COc1ccc(/C=C2\C(=O)NC(=O)N(c3ccc(Cl)cc3)C2=O)cc1OCC,12.9

row,Structure (SMILES),displacement [%]
1,CCOC(=O)c1c(NC(=O)c2ccc(Cl)cc2)sc(C(=O)Nc2ccccc2OCC)c1C,3.5
2,O=C(NCCOc1ccccc1)C(O)(c1ccc(F)cc1)c1ccc(F)cc1,-10.9
3,Cc1ccccc1COc1ccc2oc(C)c(C(=O)O)c2c1,9.4
4,COc1cc(/C=C2\SC(=S)N(NC(=O)c3ccccc3Br)C2=O)ccc1O,-21.3
5,Cc1ccc(S(=O)(=O)Oc2ccc(Br)cc2C=C2C(=O)NC(=S)NC2=O)cc1,-16.9
6,Cc1cc(OCC(=O)O/N=C(\N)c2ccc(Cl)cc2)ccc1Br,0.4
7,CC1=C(C(=O)OCc2ccccc2)C(c2ccccc2Cl)NC(=O)N1 (stereo not drawn),14.7
8,O=C(Nc1cccc(Br)c1)/C(=C\c1cccs1)NC(=O)c1cccs1,-5
9,O=S(=O)(Nc1ccc(Cl)cn1)c1ccc2ccccc2c1,-4.2
10,COc1ccccc1N1CCN(/N=C2/C(=O)Nc3ccccc32)CC1,3.9
11,CC1CCN(CCC(=O)N/N=C/c2ccc([N+](=O)[O-])cc2)CC1,-10.9
12,CCOC(=O)C(CC)Oc1ccc2c(C)c(CC)c(=O)oc2c1C (stereo not drawn),-2.4
13,Cn1c2c(c(=O)n(C)c1=O)C(c1ccccc1)C1=C(N2)c2ccccc2C1=O (stereo not drawn),5.8
14,Cc1ccc(N(CC(=O)O)S(C)(=O)=O)cc1C,8.2
15,Cc1cc(NS(=O)(=O)c2ccc(NC(=O)C(Cl)(Cl)Cl)cc2)nc(C)n1,1.3
16,CC(=O)c1cccc(NC(=O)c2ccccc2N(Cc2ccccc2)S(=O)(=O)c2ccccc2)c1,3
17,C/C(=N\NC(=O)c1ccccc1[N+](=O)[O-])c1c(O)cc(C)oc1=O,-3.1
18,O=C(/C=C/c1ccco1)Nc1cccc(F)c1,-0.3
19,COC(=O)CNC(=O)c1ccc(NC(C)=O)cc1,10
20,CCOC(=O)c1oc2c(c1C)/C(=N/OC(C)=O)CCC2,-2.3
